Common to all, as to experiment: glycan array binding signal (z-score within array); higher = stronger binding
Conditions in all cases: glycan notation: IUPAC condensed, linker removed

Experiment [1] has as its target Gal(b1-4)GlcNAc(b1-3)Gal(b1-4)GlcNAc(b1-2)[Gal(b1-4)GlcNAc(b1-3)Gal(b1-4)GlcNAc(b1-6)]Man(a1-6)[Gal(b1-4)GlcNAc(b1-3)Gal(b1-4)GlcNAc(b1-2)Man(a1-3)]Man(b1-4)GlcNAc(b1-4)[Fuc(a1-6)]GlcNAc. An outline of the steps:
(§1)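 Columns mapping to the same glycan were averaged after glycan names were converted to IUPAC-condensed notation. The data come from 3228 arrays in the Consortium for Functional Glycomics database, limited to those with an available protein sequence. Binding is reported as a within-array Z-score averaged across arrays of one protein sequence and across linkers.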

Experiment [2] has as its target Gal(b1-4)GlcNAc(b1-3)Gal(b1-4)GlcNAc(b1-3)Gal(b1-4)GlcNAc. An outline of the steps:
as §1

For experiment [3], the target named is Gal(b1-4)GlcNAc(b1-3)Gal(b1-4)GlcNAc(b1-3)Gal(b1-4)GlcNAc(b1-2)Man(a1-3)[Gal(b1-4)GlcNAc(b1-3)Gal(b1-4)GlcNAc(b1-3)Gal(b1-4)GlcNAc(b1-2)Man(a1-6)]Man(b1-4)GlcNAc(b1-4)GlcNAc. The gist of the method:
as §1

The target of experiment [4] is Gal(b1-4)GlcNAc(b1-3)Gal(b1-4)GlcNAc(b1-3)Gal(b1-4)GlcNAc(b1-2)Man(a1-3)[Gal(b1-4)GlcNAc(b1-3)Gal(b1-4)GlcNAc(b1-3)Gal(b1-4)GlcNAc(b1-2)Man(a1-6)]Man(b1-4)GlcNAc(b1-4)[Fuc(a1-6)]GlcNAc. The gist of the method:
as §1

For experiment [5], the target named is Gal(b1-4)GlcNAc(b1-3)Gal(b1-4)GlcNAc(b1-3)Gal(b1-4)GlcNAc(b1-2)[Gal(b1-4)GlcNAc(b1-3)Gal(b1-4)GlcNAc(b1-3)Gal(b1-4)GlcNAc(b1-6)]Man(a1-6)[Gal(b1-4)GlcNAc(b1-3)Gal(b1-4)GlcNAc(b1-3)Gal(b1-4)GlcNAc(b1-2)Man(a1-3)]Man(b1-4)GlcNAc(b1-4)[Fuc(a1-6)]GlcNAc. The gist of the method:
as §1

Experiment [6] has as its target Gal(b1-4)GlcNAc(b1-3)Gal(b1-4)GlcNAc(b1-3)Gal(b1-4)GlcNAc(b1-3)Gal(b1-4)GlcNAc(b1-2)Man(a1-3)[Gal(b1-4)GlcNAc(b1-3)Gal(b1-4)GlcNAc(b1-3)Gal(b1-4)GlcNAc(b1-3)Gal(b1-4)GlcNAc(b1-2)Man(a1-6)]Man(b1-4)GlcNAc(b1-4)GlcNAc. The gist of the method: as §1
In experiment [7] the target is Gal(b1-4)GlcNAc(b1-3)Gal(b1-4)GlcNAc(b1-3)Gal(b1-4)GlcNAc(b1-3)Gal(b1-4)GlcNAc(b1-2)Man(a1-3)[Gal(b1-4)GlcNAc(b1-3)Gal(b1-4)GlcNAc(b1-3)Gal(b1-4)GlcNAc(b1-3)Gal(b1-4)GlcNAc(b1-2)Man(a1-6)]Man(b1-4)GlcNAc(b1-4)[Fuc(a1-6)]GlcNAc. An outline of the steps:
as §1

The target in experiment [8] is Gal(b1-4)GlcNAc(b1-3)Gal(b1-4)GlcNAc(b1-3)Gal(b1-4)GlcNAc(b1-3)Gal(b1-4)GlcNAc(b1-2)[Gal(b1-4)GlcNAc(b1-3)Gal(b1-4)GlcNAc(b1-3)Gal(b1-4)GlcNAc(b1-3)Gal(b1-4)GlcNAc(b1-6)]Man(a1-6)[Gal(b1-4)GlcNAc(b1-3)Gal(b1-4)GlcNAc(b1-3)Gal(b1-4)GlcNAc(b1-3)Gal(b1-4)GlcNAc(b1-2)Man(a1-3)]Man(b1-4)GlcNAc(b1-4)[Fuc(a1-6)]GlcNAc. The gist of the method:
as §1

The target of experiment [9] is Gal(b1-4)GlcNAc(b1-3)Gal(b1-4)GlcNAc(b1-3)Gal(b1-4)GlcNAc(b1-3)Gal(b1-4)GlcNAc(b1-3)Gal(b1-4)GlcNAc(b1-2)Man(a1-3)[Gal(b1-4)GlcNAc(b1-3)Gal(b1-4)GlcNAc(b1-3)Gal(b1-4)GlcNAc(b1-3)Gal(b1-4)GlcNAc(b1-3)Gal(b1-4)GlcNAc(b1-2)Man(a1-6)]Man(b1-4)GlcNAc(b1-4)GlcNAc. The gist of the method:
as §1

For experiment [10], the target named is Gal(b1-4)GlcNAc(b1-3)Gal(b1-4)GlcNAc(b1-3)Gal(b1-4)GlcNAc(b1-3)Gal(b1-4)GlcNAc(b1-3)Gal(b1-4)GlcNAc(b1-2)Man(a1-3)[Gal(b1-4)GlcNAc(b1-3)Gal(b1-4)GlcNAc(b1-3)Gal(b1-4)GlcNAc(b1-3)Gal(b1-4)GlcNAc(b1-3)Gal(b1-4)GlcNAc(b1-2)Man(a1-6)]Man(b1-4)GlcNAc(b1-4)[Fuc(a1-6)]GlcNAc. An outline of the steps: as §1
Experiment [11] has as its target Gal(b1-4)GlcNAc(b1-3)Gal(b1-4)GlcNAc(b1-3)Gal(b1-4)GlcNAc(b1-3)Gal(b1-4)GlcNAc(b1-3)Gal(b1-4)GlcNAc(b1-2)[Gal(b1-4)GlcNAc(b1-3)Gal(b1-4)GlcNAc(b1-3)Gal(b1-4)GlcNAc(b1-3)Gal(b1-4)GlcNAc(b1-3)Gal(b1-4)GlcNAc(b1-6)]Man(a1-6)[Gal(b1-4)GlcNAc(b1-3)Gal(b1-4)GlcNAc(b1-3)Gal(b1-4)GlcNAc(b1-3)Gal(b1-4)GlcNAc(b1-3)Gal(b1-4)GlcNAc(b1-2)Man(a1-3)]Man(b1-4)GlcNAc(b1-4)[Fuc(a1-6)]GlcNAc. An outline of the steps: as §1

Experiment [12] addresses Gal(b1-4)GlcNAc(b1-3)Gal(b1-4)GlcNAc(b1-3)Gal(b1-4)GlcNAc(b1-3)Gal(b1-4)GlcNAc(b1-3)Gal(b1-4)GlcNAc(b1-3)Gal(b1-4)GlcNAc(b1-2)Man(a1-3)[Gal(b1-4)GlcNAc(b1-3)Gal(b1-4)GlcNAc(b1-3)Gal(b1-4)GlcNAc(b1-3)Gal(b1-4)GlcNAc(b1-3)Gal(b1-4)GlcNAc(b1-3)Gal(b1-4)GlcNAc(b1-2)Man(a1-6)]Man(b1-4)GlcNAc(b1-4)GlcNAc. An outline of the steps: as §1
Experiment [13] has as its target Gal(b1-4)GlcNAc(b1-3)Gal(b1-4)GlcNAc(b1-3)GalNAc. An outline of the steps:
as §1

In experiment [14] the target is Gal(b1-4)GlcNAc(b1-3)Gal(b1-4)GlcNAc(b1-3)[Gal(b1-4)GlcNAc(b1-3)Gal(b1-4)GlcNAc(b1-6)]GalNAc. The gist of the method:
as §1

For experiment [15], the target named is Gal(b1-4)GlcNAc(b1-3)Gal(b1-4)GlcNAc(b1-6)[Gal(b1-3)]GalNAc. The gist of the method: as §1
In experiment [16] the target is Gal(b1-4)GlcNAc(b1-3)Gal(b1-4)[Fuc(a1-3)]GlcNAc(b1-3)Gal(b1-4)[Fuc(a1-3)]GlcNAc. The gist of the method:
as §1

Experiment [17] concerns the target Gal(b1-4)GlcNAc(b1-3)GalNAc. The gist of the method:
as §1

Experiment [18] deals with Gal(b1-4)GlcNAc(b1-3)[Fuc(a1-3)GlcNAc(b1-6)]Gal(b1-4)Glc. An outline of the steps:
as §1

Experiment [19] concerns the target Gal(b1-4)GlcNAc(b1-3)[Gal(b1-4)GlcNAc(b1-6)]Gal(b1-4)GlcNAc. An outline of the steps: as §1
Experiment [20] concerns the target Gal(b1-4)GlcNAc(b1-3)[Gal(b1-4)GlcNAc(b1-6)]GalNAc. The gist of the method:
as §1

For experiment [21], the target named is Gal(b1-4)GlcNAc(b1-3)[GlcNAc(b1-6)]Gal(b1-4)GlcNAc. The gist of the method: as §1
The target in experiment [22] is Gal(b1-4)GlcNAc(b1-6)Gal(b1-4)GlcNAc. An outline of the steps: as §1
In experiment [23] the target is Gal(b1-4)GlcNAc(b1-6)Gal(b1-4)GlcNAc(b1-6)GalNAc. An outline of the steps: as §1

This is one part of the list.

B1: Jacalin (Artocarpus integrifolia) (protein)
chain: MAYSSLLSLSVLALLFSISSADTRKWFLANGINQNPIGIIEAAVGVSEDLLNLNGMEAKNDEQSGISQTVIVGPWGAKVSTSSNGKAFDDGAFTGIREINLSYNKETAIGDFQVVYDLNGSPYVGQNHKSFITGFTPVKISLDFPSEYIMEVSGYTGNVSGYVVVRSLTFKTNKKTYGPYGVTSGTPFNLPIENGLIVGFKGSIGYWLDYFSMYLSL
As to B1, the “glycan array binding signal (z-score)” value in experiment [1] is 0.097; in experiment [2] it was -0.284; in experiment [3], 0.053; in [4] it was 0.144; in experiment [5], -0.041; in experiment [6], -0.217. In addition, the “glycan array binding signal (z-score)” value is 0.12 in experiment [7]; -0.081 in experiment [8]; -0.257 in experiment [9]; 0.147 in experiment [10]; -0.06 in [11]; -0.235 in [12]. For the same molecule, the “glycan array binding signal (z-score)” value in experiment [13] was 1.14; in experiment [14], -0.025; in experiment [15], 0.001; in experiment [16] it was -0.244; in experiment [17] it was 1.83; in experiment [18], -0.219. Further, the “glycan array binding signal (z-score)” value in [19] was -0.246; in experiment [20] it was -0.347; in experiment [21], -0.253; in experiment [22], -0.256; in experiment [23], -0.354.
